According to patent US8778342B2, “Antibody therapy” (Immunomedics, Inc., priority 2002, dated 2014):

What follows are compounds tested on TT MTC xenografts (assay: Chemotherapy of TT MTC xenografts in nude mice). Conditions: doses of FIG. 3: doxorubicin 20 mg/m^2 and DTIC 300 mg/m^2 days 0-2, cyclophosphamide 600 mg/m^2 and vincristine 4.2 μg day 0.
Format: in vivo, human
With CC[C@]1(O)C[C@H]2CN(CCc3c([nH]c4ccccc34)[C@@](C(=O)OC)(c3cc4c(cc3OC)N(C=O)[C@H]3[C@@](O)(C(=O)OC)[C@H](OC(C)=O)[C@]5(CC)C=CCN6CC[C@]43[C@@H]65)C2)C1 [vincristine] the “Approximate mean time to doubling” value was about 1.5 weeks. COc1cccc2c1C(=O)c1c(O)c3c(c(O)c1C2=O)C[C@@](O)(C(=O)CO)C[C@@H]3O[C@H]1C[C@H](N)[C@H](O)[C@H](C)O1 [doxorubicin] was tested, and the “Approximate mean time to doubling” value was about 2.5 weeks. In the case of CN(C)/N=N/c1[nH]cnc1C(N)=O [DTIC, dacarbazine], the “Approximate mean time to doubling” value is reported as about 7.5 weeks.
